The values below come from the antibiotic and cytotoxicity screens of Wong et al. (2023).

The list shows a part of the results.

The test system of assay [1] is HSkMC (human skeletal muscle cells). Briefly: cytotoxicity call (relative viability < 0.9). The note with it: 10 µM.
The subject of assay [2] is S. aureus RN4220. In words: growth inhibition call (relative growth <= 0.2). To be noted: 50 µM.

As to `O=C(C[C@H]1CC[C@H](NS(=O)(=O)c2ccccc2)[C@@H](CO)O1)NCc1ccncn1`, the cytotoxicity call in assay [1] was “inactive”. Besides, in assay [2], the growth inhibition call is “inactive”.
For the compound `CC(C)NC(=O)N(C)C[C@H]1Oc2ccc(NC(=O)CCC(F)(F)F)cc2C(=O)N([C@@H](C)CO)C[C@H]1C`, the cytotoxicity call in assay [1] is “inactive”. For the same compound, the growth inhibition call in assay [2] was “inactive”.
`C=C/C=C/[C@@H]1C(=C)CN2[C@H]1[C@H](Cc1ccccc1)OC(=O)[C@@H]2Cc1ccc(-n2cc(COc3ccccc3/C=C(C)/C=C/C(=O)NO)nn2)cc1`: in assay [1], the cytotoxicity call was “inactive”. In addition, in assay [2], the growth inhibition call is “inactive”.
With `C[C@@H]1CN([C@@H](C)CO)C(=O)c2cc(NC(=O)CCCN(C)C)ccc2O[C@H]1CN(C)Cc1ccc(Oc2ccccc2)cc1`, in assay [1], the cytotoxicity call was “inactive”. Also, the growth inhibition call in assay [2] is “inactive”.
For `CO[C@@H]1CN(C)C(=O)c2cc(NC(=O)c3cnccn3)ccc2OC[C@@H](C)N(CCC(F)(F)F)C[C@H]1C`, the cytotoxicity call in assay [1] was “inactive”. For the same compound, in assay [2], the growth inhibition call was “inactive”.
Take `C[C@@H]1CN([C@@H](C)CO)C(=O)c2cccc(NS(=O)(=O)c3cccs3)c2O[C@H]1CN(C)Cc1ccc(Cl)c(Cl)c1`: in assay [1], the cytotoxicity call was “inactive”. For the same compound, the growth inhibition call in assay [2] was “inactive”.
Turning to `C[C@H]1CN([C@@H](C)CO)C(=O)Cc2cc(NS(=O)(=O)c3cccs3)ccc2O[C@@H]1CN(C)S(=O)(=O)c1cn(C)cn1`, the cytotoxicity call in assay [1] is “inactive”. For the same compound, the growth inhibition call in assay [2] was “inactive”.
Regarding `CN1CCC[C@H]1CCO`, the cytotoxicity call in assay [1] is “inactive”. For the same compound, in assay [2], the growth inhibition call was “inactive”.
For the compound `CC(C)C(=O)NS(=O)(=O)c1ccc(N)cc1`, the cytotoxicity call in assay [1] is “inactive”. In addition, the growth inhibition call in assay [2] is “inactive”.
As to `C[C@@H]1CCCCO[C@H](CN(C)C(=O)Nc2ccc(F)cc2)[C@H](C)CN([C@H](C)CO)C(=O)c2cc(NC(=O)c3ccncc3)ccc2O1`, the cytotoxicity call in assay [1] was “inactive”. Besides, in assay [2], the growth inhibition call is “inactive”.
On to `C[C@H]1CCCCO[C@@H](CN(C)C(=O)Nc2ccc3c(c2)OCO3)[C@@H](C)CN([C@@H](C)CO)C(=O)c2cc(NS(=O)(=O)c3ccc(F)cc3)ccc2O1`, for which, in assay [1], the cytotoxicity call is “inactive”. Besides, in assay [2], the growth inhibition call was “inactive”.
`C[C@@H]1CN([C@@H](C)CO)C(=O)c2cc(NS(=O)(=O)c3ccc(F)cc3)ccc2O[C@@H]1CN(C)Cc1ccncc1`: the cytotoxicity call in assay [1] was “inactive”. The growth inhibition call in assay [2] was “inactive”.
`C[C@@H]1CN([C@@H](C)CO)C(=O)c2cc(NC(=O)Cc3cn(C)c4ccccc34)ccc2O[C@H]1CN(C)Cc1ccc(Oc2ccccc2)cc1`: in assay [1], the cytotoxicity call was “inactive”. Besides, the growth inhibition call in assay [2] was “inactive”.
With `C[C@@H]1CCCCO[C@@H](CN(C)Cc2ccc(C(F)(F)F)cc2)[C@@H](C)CN([C@@H](C)CO)C(=O)c2cc(NC(=O)Nc3ccc(F)cc3)ccc2O1`, the cytotoxicity call in assay [1] is “inactive”. Besides, the growth inhibition call in assay [2] was “inactive”.
With `C[C@H](CO)N1C[C@H](C)[C@@H](CN(C)Cc2ccc(C(=O)Nc3ccccc3N)cc2)Oc2ccc(NC(=O)Nc3ccc(C(F)(F)F)cc3)cc2C1=O`, the cytotoxicity call in assay [1] is “inactive”. The growth inhibition call in assay [2] was “inactive”.
For the compound `C[C@@H]1CN([C@H](C)CO)C(=O)c2cccc(NC(=O)Nc3cccc4ccccc34)c2O[C@H]1CN(C)C(=O)Nc1ccc2c(c1)OCO2`, the cytotoxicity call in assay [1] is “inactive”. The growth inhibition call in assay [2] is “inactive”.
As for `O=C1NC(=O)[C@H]2[C@@H]1[C@H](c1ccccc1)N1[C@@H]3C(=O)NC(=O)[C@@H]3[C@H](c3ccccc3)N21`, the cytotoxicity call in assay [1] is “inactive”. Further, in assay [2], the growth inhibition call was “inactive”.
As for `Cc1cn2c3c(=O)n(C)c(=O)n(C)c3nc2n1CCN1CCOCC1`, the cytotoxicity call in assay [1] is “inactive”. In addition, in assay [2], the growth inhibition call was “inactive”.
`CO[C@@H]1CN(C)C(=O)c2ccc(NS(=O)(=O)c3ccccc3C)cc2OC[C@H](C)N(S(C)(=O)=O)C[C@H]1C`: the cytotoxicity call in assay [1] is “inactive”. Further, the growth inhibition call in assay [2] is “inactive”.
For `O=C(/C=C/c1ccc(O)c(O)c1)O[C@@H]1C[C@](OC(=O)/C=C/c2ccc(O)c(O)c2)(C(=O)O)C[C@@H](O)[C@H]1O`, the cytotoxicity call in assay [1] is “inactive”. Further, the growth inhibition call in assay [2] was “inactive”.
Regarding `COc1ccc(S(=O)(=O)N(C)C[C@@H]2Oc3ncc(C#CCN(C)C)cc3C(=O)N([C@H](C)CO)C[C@@H]2C)cc1`, the cytotoxicity call in assay [1] is “inactive”. The growth inhibition call in assay [2] was “inactive”.
As for `COc1cc2c(cc1OC)-c1c(oc3cc4c(cc3c1=O)CCO4)CO2`, the cytotoxicity call in assay [1] is “inactive”. In addition, the growth inhibition call in assay [2] is “inactive”.
For the compound `C[C@@H]1CN([C@H](C)CO)C(=O)c2cc(NC(=O)Cc3ccccc3)ccc2O[C@@H]1CN(C)C(=O)Nc1cccc2ccccc12`, the cytotoxicity call in assay [1] is “inactive”. The growth inhibition call in assay [2] was “inactive”.
As for `Nc1ncn(C(=O)c2ccccc2)n1`, in assay [1], the cytotoxicity call was “inactive”. For the same compound, the growth inhibition call in assay [2] is “inactive”.
As for `C[C@@H]1CN([C@@H](C)CO)C(=O)Cc2cc(NC(=O)Nc3cccc4ccccc34)ccc2O[C@H]1CN(C)C(=O)NC1CCCCC1`, the cytotoxicity call in assay [1] was “inactive”. The growth inhibition call in assay [2] is “inactive”.
As to `CC(C)NC(=O)N(C)C[C@H]1Oc2cc(C#Cc3cccc(F)c3)ccc2S(=O)(=O)N([C@@H](C)CO)C[C@H]1C`, the cytotoxicity call in assay [1] is “inactive”. In addition, in assay [2], the growth inhibition call is “inactive”.
For `Cn1cnc(S(=O)(=O)N2C[C@H](O)COC[C@@H]3O[C@H](CC(=O)NC4Cc5ccccc5C4)CC[C@H]32)c1`, the cytotoxicity call in assay [1] was “inactive”. For the same compound, in assay [2], the growth inhibition call is “inactive”.
Consider `C[C@@H]1CN([C@@H](C)CO)C(=O)c2cc(NC(=O)Nc3ccccc3)ccc2O[C@@H](C)CCCCO[C@@H]1CN(C)Cc1ccccc1`, for which the cytotoxicity call in assay [1] was “inactive”. Also, the growth inhibition call in assay [2] was “inactive”.
For the compound `Cc1ccc(S(=O)(=O)Nc2ccc3c(c2)C(=O)N([C@H](C)CO)C[C@@H](C)[C@H](CN(C)C(=O)NC2CCCCC2)OCCCC[C@H](C)O3)cc1`, the cytotoxicity call in assay [1] was “inactive”. Also, the growth inhibition call in assay [2] is “inactive”.
`c1ccc(CNC2CCCCC2)nc1`: the cytotoxicity call in assay [1] was “inactive”. In assay [2], the growth inhibition call is “inactive”.
For `Cc1ccc(S(=O)(=O)N(C)C[C@H]2OCCCC[C@H](C)Oc3ccc(NC(=O)Nc4c(C)noc4C)cc3C(=O)N([C@@H](C)CO)C[C@@H]2C)cc1`, the cytotoxicity call in assay [1] was “inactive”. Also, the growth inhibition call in assay [2] was “inactive”.
For the compound `CCS(=O)(=O)NCC[C@@H]1CC[C@@H](NS(=O)(=O)c2ccccc2C)[C@H](CO)O1`, the cytotoxicity call in assay [1] was “inactive”. In addition, the growth inhibition call in assay [2] was “inactive”.
